Our source for the binding values is publication PMC11352460, “RILP Induces Cholesterol Accumulation in Lysosomes by Inhibiting Endoplasmic Reticulum–Endolysosome Interactions” (Cells, 2024).

In assay [1] the target is GST-RILP (Rab7-interacting lysosomal protein) (UniProt Q96NA2). In words: pull-down; GST-fusion protein coupled to GST-Sepharose 4B resin incubated with HEK-293T lysate containing the GFP-tagged protein, 4 °C overnight; lysis buffer 20 mM HEPES pH 7.4, 1% Triton X-100, 100 mM NaCl, 5 mM MgCl2; washes with 500, 300 and 100 mM NaCl; Western blot with GFP antibody; only the target purified. For orientation: A western blot detects proteins with antibodies after separation by electrophoresis.

Another assay has as its target T1, His-ORP1L, Q9BXW6.
T1 chain: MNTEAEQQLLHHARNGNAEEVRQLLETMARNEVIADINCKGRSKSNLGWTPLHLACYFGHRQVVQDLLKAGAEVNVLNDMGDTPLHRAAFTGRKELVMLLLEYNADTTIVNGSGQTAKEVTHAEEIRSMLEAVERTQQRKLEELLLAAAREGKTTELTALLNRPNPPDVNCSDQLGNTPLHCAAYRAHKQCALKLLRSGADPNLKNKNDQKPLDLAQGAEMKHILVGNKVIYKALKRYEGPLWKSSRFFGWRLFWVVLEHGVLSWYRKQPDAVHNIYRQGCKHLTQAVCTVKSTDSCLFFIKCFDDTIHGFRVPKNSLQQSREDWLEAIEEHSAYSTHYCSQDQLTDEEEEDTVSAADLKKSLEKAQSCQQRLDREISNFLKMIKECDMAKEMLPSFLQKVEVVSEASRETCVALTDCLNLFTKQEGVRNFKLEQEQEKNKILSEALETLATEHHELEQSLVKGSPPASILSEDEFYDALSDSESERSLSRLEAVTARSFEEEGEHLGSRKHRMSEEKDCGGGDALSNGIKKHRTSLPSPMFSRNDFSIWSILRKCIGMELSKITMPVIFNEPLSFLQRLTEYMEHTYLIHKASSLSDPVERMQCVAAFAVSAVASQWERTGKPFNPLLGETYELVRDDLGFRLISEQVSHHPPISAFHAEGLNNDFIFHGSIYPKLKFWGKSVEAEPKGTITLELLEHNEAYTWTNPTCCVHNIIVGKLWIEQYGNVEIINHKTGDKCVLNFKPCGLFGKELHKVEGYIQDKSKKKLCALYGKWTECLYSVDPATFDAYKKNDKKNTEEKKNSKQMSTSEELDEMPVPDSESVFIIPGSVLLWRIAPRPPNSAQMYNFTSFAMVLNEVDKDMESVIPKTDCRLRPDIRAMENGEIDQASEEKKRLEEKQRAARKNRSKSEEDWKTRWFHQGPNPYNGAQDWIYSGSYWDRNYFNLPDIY
The assay can be described thus: pull-down; in vitro binding: purified prokaryotic expressed His-ORP1L or His-ORP1L(336-950aa) with increasing amounts of His-RILP, incubated with GST-VAPa(1-225aa) retained on GST beads; ORP1L bound assessed by Western blot; both purified. The conditions noted are these: remark: other sources report otherwise.

Assay [2] addresses T2, GST-RILP (Rab7-interacting lysosomal protein), Q96NA2.
T2 chain: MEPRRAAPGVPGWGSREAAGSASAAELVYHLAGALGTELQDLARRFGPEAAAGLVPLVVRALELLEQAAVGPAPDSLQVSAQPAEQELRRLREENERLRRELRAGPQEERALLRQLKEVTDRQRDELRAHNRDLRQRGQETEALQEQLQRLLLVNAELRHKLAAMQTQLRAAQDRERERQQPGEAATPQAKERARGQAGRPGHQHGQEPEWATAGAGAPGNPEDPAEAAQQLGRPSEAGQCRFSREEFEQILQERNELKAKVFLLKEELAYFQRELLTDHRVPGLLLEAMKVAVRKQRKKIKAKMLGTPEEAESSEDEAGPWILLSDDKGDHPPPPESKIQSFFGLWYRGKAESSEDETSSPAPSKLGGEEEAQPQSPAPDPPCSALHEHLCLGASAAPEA
The assay can be described thus: pull-down; GST-fusion protein coupled to GST-Sepharose 4B resin incubated with HEK-293T lysate containing the GFP-tagged protein, 4 °C overnight; lysis buffer 20 mM HEPES pH 7.4, 1% Triton X-100, 100 mM NaCl, 5 mM MgCl2; washes with 500, 300 and 100 mM NaCl; Western blot with GFP antibody; only the target purified. The conditions noted are these: remark: other sources report otherwise.

No constants are given. Whether binding was seen depends on the method and setting. For some assays here: Binding seen in cells or lysates may run through a third protein. Some entries that bind do so weakly or less than the wild type. Sequences can lack the tags named with a protein.

B1: GFP-ORP1L(1-485aa) (domain or fragment, UniProt Q9BXW6-1 1-485)
chain: MNTEAEQQLLHHARNGNAEEVRQLLETMARNEVIADINCKGRSKSNLGWTPLHLACYFGHRQVVQDLLKAGAEVNVLNDMGDTPLHRAAFTGRKELVMLLLEYNADTTIVNGSGQTAKEVTHAEEIRSMLEAVERTQQRKLEELLLAAAREGKTTELTALLNRPNPPDVNCSDQLGNTPLHCAAYRAHKQCALKLLRSGADPNLKNKNDQKPLDLAQGAEMKHILVGNKVIYKALKRYEGPLWKSSRFFGWRLFWVVLEHGVLSWYRKQPDAVHNIYRQGCKHLTQAVCTVKSTDSCLFFIKCFDDTIHGFRVPKNSLQQSREDWLEAIEEHSAYSTHYCSQDQLTDEEEEDTVSAADLKKSLEKAQSCQQRLDREISNFLKMIKECDMAKEMLPSFLQKVEVVSEASRETCVALTDCLNLFTKQEGVRNFKLEQEQEKNKILSEALETLATEHHELEQSLVKGSPPASILSEDEFYDALSDSES
For the molecule B1, in assay [1], the binding entry is “binds”.

B2: GFP-ORP7(1-409aa) (domain or fragment, UniProt Q9BZF2 1-409)
chain: MDFQERDPPFLPESAQSSKPSSAQQASELWEVVEEPRVRLGTEGVMPERQEGHLLKKRKWPLKGWHKRYFVLEDGILHYATTRQDITKGKLHGSIDVRLSVMSINKKAQRIDLDTEDNIYHLKIKSQDLFQSWVAQLRAHRLAHRLDMPRGSLPSTAHRKVPGAQLPTAATASALPGLGPREKVSSWLRDSDGLDRCSHELSECQGKLQELHRLLQSLESLHRIPSAPVIPTHQASVTTERPKKGKRTSRMWCTQSFAKDDTIGRVGRLHGSVPNLSRYLESRDSSGTRGLPPTDYAHLQRSFWALAQKVHSSLSSVLAALTMERDQLRDMHQGSELSRMGVSEASTGQRRLHSLSTSSDTTADSFSSLNPEEQEALYMKGRELTPQLSQTSILSLADSHTEFFDACEV
Regarding B2, the binding result in assay [1] is reported as “binds”.

B3: His-RILP, Q96NA2 1-401 (protein)
chain: T2 chain
On to B3, for which the binding entry with His-ORP1L, Q9BXW6 is “binds”.

B4: GFP-ORP7(1-401aa) (domain or fragment, UniProt Q9BZF2 1-401)
chain: MDFQERDPPFLPESAQSSKPSSAQQASELWEVVEEPRVRLGTEGVMPERQEGHLLKKRKWPLKGWHKRYFVLEDGILHYATTRQDITKGKLHGSIDVRLSVMSINKKAQRIDLDTEDNIYHLKIKSQDLFQSWVAQLRAHRLAHRLDMPRGSLPSTAHRKVPGAQLPTAATASALPGLGPREKVSSWLRDSDGLDRCSHELSECQGKLQELHRLLQSLESLHRIPSAPVIPTHQASVTTERPKKGKRTSRMWCTQSFAKDDTIGRVGRLHGSVPNLSRYLESRDSSGTRGLPPTDYAHLQRSFWALAQKVHSSLSSVLAALTMERDQLRDMHQGSELSRMGVSEASTGQRRLHSLSTSSDTTADSFSSLNPEEQEALYMKGRELTPQLSQTSILSLADSHT
In the case of B4, the binding result in assay [1] is “no binding”.

B5: GFP-ORP1L(486-950aa) (domain or fragment, UniProt Q9BXW6-1 486-950)
chain: ERSLSRLEAVTARSFEEEGEHLGSRKHRMSEEKDCGGGDALSNGIKKHRTSLPSPMFSRNDFSIWSILRKCIGMELSKITMPVIFNEPLSFLQRLTEYMEHTYLIHKASSLSDPVERMQCVAAFAVSAVASQWERTGKPFNPLLGETYELVRDDLGFRLISEQVSHHPPISAFHAEGLNNDFIFHGSIYPKLKFWGKSVEAEPKGTITLELLEHNEAYTWTNPTCCVHNIIVGKLWIEQYGNVEIINHKTGDKCVLNFKPCGLFGKELHKVEGYIQDKSKKKLCALYGKWTECLYSVDPATFDAYKKNDKKNTEEKKNSKQMSTSEELDEMPVPDSESVFIIPGSVLLWRIAPRPPNSAQMYNFTSFAMVLNEVDKDMESVIPKTDCRLRPDIRAMENGEIDQASEEKKRLEEKQRAARKNRSKSEEDWKTRWFHQGPNPYNGAQDWIYSGSYWDRNYFNLPDIY
As for B5, the binding result in assay [1] is recorded as “no binding”.

B6: GFP-ORP1L (OSBP-related protein 1L), Q9BXW6-1 1-950 (protein)
chain: T1 chain
For B6, in assay [2], the binding result was “binds”.

B7: GFP-ORP7(410-842aa) (domain or fragment, UniProt Q9BZF2 410-842)
chain: LLSASSSENEGSEEEESCTSEITTSLSEEMLDLRGAERCQKGGCVPGRPMGPPRRRCLPAASGPGADVSLWNILRNNIGKDLSKVSMPVQLNEPLNTLQRLCEELEYSSLLDQASRIADPCERMVYIAAFAVSAYSSTYHRAGCKPFNPVLGETYECERPDRGFRFISEQVSHHPPISACHAESENFAFWQDMKWKNKFWGKSLEIVPVGTVNVSLPRFGDHFEWNKVTSCIHNVLSGQRWIEHYGEVLIRNTQDSSCHCKITFCKAKYWSSNVHEVQGAVLSRSGRVLHRLFGKWHEGLYRGPTPGGQCIWKPNSMPPDHERNFGFTQFALELNELTAELKRSLPSTDTRLRPDQRYLEEGNIQAAEAQKRRIEQLQRDRRKVMEENNIVHQARFFRRQTDSSGKEWWVTNNTYWRLRAEPGYGNMDGAVLW
Turning to B7, in assay [1], the binding result is on record as “no binding”.

B8: GFP-ORP1L(1-468aa) (domain or fragment, UniProt Q9BXW6-1 1-468)
chain: MNTEAEQQLLHHARNGNAEEVRQLLETMARNEVIADINCKGRSKSNLGWTPLHLACYFGHRQVVQDLLKAGAEVNVLNDMGDTPLHRAAFTGRKELVMLLLEYNADTTIVNGSGQTAKEVTHAEEIRSMLEAVERTQQRKLEELLLAAAREGKTTELTALLNRPNPPDVNCSDQLGNTPLHCAAYRAHKQCALKLLRSGADPNLKNKNDQKPLDLAQGAEMKHILVGNKVIYKALKRYEGPLWKSSRFFGWRLFWVVLEHGVLSWYRKQPDAVHNIYRQGCKHLTQAVCTVKSTDSCLFFIKCFDDTIHGFRVPKNSLQQSREDWLEAIEEHSAYSTHYCSQDQLTDEEEEDTVSAADLKKSLEKAQSCQQRLDREISNFLKMIKECDMAKEMLPSFLQKVEVVSEASRETCVALTDCLNLFTKQEGVRNFKLEQEQEKNKILSEALETLATEHHELEQSLVKGSPPA
As to B8, the binding entry in assay [1] is reported as “no binding”.
